In PubChem BioAssay AID1468 (National Center for Advancing Translational Sciences (NCATS), 2008):
Out of some 280,000 compounds screened, about 1,100 (0.39%) were called active. Inconclusive results, whose numbers are uncertain, are shown with a selection of clear calls. The call rests on the fitted dose curve; in most records, active means well fitted inhibition curve with a large enough effect; inconclusive means small, poorly fitted or top-dose-only effect, or effect the other way; inactive means flat fitted curve, though single readings scatter. No potency is given beside an inconclusive call; the fits are too rough.
Further: nearly all actives have a fitted effect of over 55% in size.
On the % scale 0 is the no-effect control and ±100 the full control effect; potency means the concentration at half of the fitted maximal effect; tags describe the fitted curve by direction and shape.

These molecules were tested against Microtubule-associated protein tau (Homo sapiens) (UniProt P10636) (assay: qHTS for Inhibitors of Tau Fibril Formation, Fluorescence Polarization). Conditions: K18 P301L tau heparin fibrillization, Alexa594 FP, 6 h; series mostly up to 57.7 µM.
Chain of UniProt P10636 (P10636 whole entry, looked up): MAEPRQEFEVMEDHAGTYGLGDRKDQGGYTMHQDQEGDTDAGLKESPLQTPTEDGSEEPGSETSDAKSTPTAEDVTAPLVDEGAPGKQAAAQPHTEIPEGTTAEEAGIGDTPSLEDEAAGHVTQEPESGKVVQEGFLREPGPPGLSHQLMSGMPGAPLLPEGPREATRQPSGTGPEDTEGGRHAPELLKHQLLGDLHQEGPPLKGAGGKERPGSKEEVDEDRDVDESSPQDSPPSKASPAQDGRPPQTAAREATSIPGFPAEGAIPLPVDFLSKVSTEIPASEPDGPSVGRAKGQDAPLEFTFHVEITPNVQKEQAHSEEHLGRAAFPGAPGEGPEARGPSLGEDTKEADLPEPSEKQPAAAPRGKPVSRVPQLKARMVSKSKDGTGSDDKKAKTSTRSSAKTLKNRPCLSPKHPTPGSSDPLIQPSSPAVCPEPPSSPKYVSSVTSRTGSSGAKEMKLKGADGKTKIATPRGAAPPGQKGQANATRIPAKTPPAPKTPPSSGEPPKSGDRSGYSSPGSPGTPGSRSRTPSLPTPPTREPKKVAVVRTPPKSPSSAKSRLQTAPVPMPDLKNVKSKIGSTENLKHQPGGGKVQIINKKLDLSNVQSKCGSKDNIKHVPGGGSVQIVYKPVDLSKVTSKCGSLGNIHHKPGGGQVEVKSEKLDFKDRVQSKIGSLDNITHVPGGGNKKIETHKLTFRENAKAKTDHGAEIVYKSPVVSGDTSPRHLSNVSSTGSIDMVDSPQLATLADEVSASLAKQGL
Summary of the method: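 Read-out: fluorescence polarization of Alexa 594-labeled tau (0.24 uM), 555 nm excitation, 632 nm emission. Mixtures held 15 uM unlabeled K18 P301L, compound and 20 uM heparin, pH 7 acetate buffer, incubated 6 hr at 37 C.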
With O=c1c2cc(N3CCOCC3)ccc2[nH]c(=S)n1CCCN1CCCC1 the Potency was “inactive”.
With Cc1c(O)c(=O)ccn1C the Potency was “inactive”.
With CCOC(=O)c1nn(-c2ccc(F)cc2)c(=O)c2c(N)scc12 the activity, negative = inhibition was inactive: 1.22% [at 2.34 µM].
N/N=C1\CCCc2nonc21 was tested, and the Potency was inconclusive [inhibitor, full curve, poor fit].
For CC1=C(C(=O)Nc2ccccc2C)C(c2cccs2)n2nc(SCc3ccccc3)nc2N1 (centres undefined), the Potency was inconclusive [inhibitor, partial curve].
Cc1ccc(N2C(N)=C(C#N)C(c3cccnc3)C3=C2CC(C)(C)CC3=O)cc1 (centres undefined) was tested, and the Potency was inconclusive [inhibitor, partial curve, poor fit].
With COc1ccc(C(=O)NNC(=O)CSc2nnc(-c3cccnc3)o2)cc1 the Potency was inconclusive [inhibitor, partial curve, poor fit].
COc1ccc(/C=N/NC(=S)Nc2ccccc2[N+](=O)[O-])cc1O was tested, and the Potency was “inactive”.
With CC(C)CC(=O)N=Nc1c(O)[nH]c2ccccc12 the Potency was “inactive”.
With CC(=O)c1ccc(NC(=O)C2CCN(c3nnc(C)c4c(C)n(-c5ccccc5)nc34)CC2)cc1 the Potency was inconclusive [inhibitor, single point].
COCCN(CCOC)c1nc(C)nc2c1nc(-c1ccccc1)n2CC1CCN(C)CC1 was tested, and the Potency was “inactive”.
For Cc1ccc([N+](=O)[O-])cc1S(=O)(=O)N(C)C, the Potency was “inactive”.
With CCCCOc1ccc(NC(=O)CSc2cccc3cccnc23)cc1 the Potency was inconclusive [inhibitor, partial curve, poor fit].
In the case of CCN(CCCNC(=O)CN(C)S(=O)(=O)c1cccc2nsnc12)c1cccc(C)c1, the Potency is reported as “inactive”.
CC(=O)OC1CC(OC(C)=O)[C@]2(C)C(CC(=O)[C@]3(C)C2CC[C@@]2(C)C(c4ccoc4)OC(=O)C4O[C@@]423)C1(C)C (some centres undefined) was tested, and the Potency was active: 31.6 µM.
Cc1[nH]c2ccccc2c1C(=O)COC(=O)c1cccc(S(=O)(=O)N2CCCCC2)c1 was tested, and the Potency was inconclusive [inhibitor, partial curve].
In the case of Cc1cccc(-c2nc(CS(=O)CC(=O)N3CCCCC3)c(C)o2)c1 (centres undefined), the Potency is reported as inconclusive [activator, partial curve, poor fit].
With CCN(CC)CC1CCN(c2ncc3ncnc(Nc4ccc(F)c(Cl)c4)c3n2)CC1 the Potency was inconclusive [inhibitor, single point].
For Cc1cccc(Cn2c(-c3cccc(Br)c3)nc3ccccc32)c1, the Potency was “inactive”.
For COC(=O)[C@H]1C[C@@H]1[C@H](NS(=O)(=O)c1ccc2ccccc2c1)c1ccccc1, the Potency was inconclusive [inhibitor, partial curve].
With CC(C)C[C@H](NC(=O)c1[nH]cnc1C(=O)Nc1ccc(Cl)cc1)C(=O)OC(C)(C)C the Potency was active: 11.2 µM.
With CCc1cccc(-n2nnc(-c3nsc(NC(=O)c4cccc(OC)c4)n3)c2C)c1 the Potency was “inactive”.
For N#CC(C(=O)OC1CCCCC1)c1nc2ccccc2nc1N1CCOCC1 (centres undefined), the Potency was “inactive”.
In the case of CCN(CC)S(=O)(=O)c1cccc(NC(=O)c2cc3ccccc3o2)c1, the Potency is reported as inconclusive [inhibitor, partial curve].
In the case of O=C(c1ccc(F)cc1)N1CCCCC(S(=O)(=O)c2ccccc2)C1=O (centres undefined), the Potency is reported as “inactive”.
COc1ccccc1Nc1sc(C(=O)c2ccc(F)cc2)c(N)c1S(=O)(=O)c1ccc(C)cc1 was tested, and the Potency was inconclusive [inhibitor, single point].
COc1ccc(Br)cc1S(=O)(=O)Nc1cc(-c2cn3ccccc3n2)ccc1C was tested, and the Potency was inconclusive [inhibitor, partial curve].
With Cc1ccc(C2C=C(c3ccccc3)Nc3nc(NS(=O)(=O)c4ccccc4)nn32)cc1 (centres undefined) the Potency was inconclusive [inhibitor, full curve, poor fit].
For CCOC(=O)CN1C(=O)S/C(=C/c2ccc(O)c([N+](=O)[O-])c2)C1=O, the Potency was inconclusive [inhibitor, single point].
With Cc1ccc(-n2ncc3c(Nc4cccc(Cl)c4)ncnc32)c(C)c1 the Potency was active: 25.1 µM.
With COc1cccc(-c2nn(-c3ccccc3)cc2C(=O)Nc2nccs2)c1 the Potency was active: 28.2 µM.
With CCOc1ccc(S(=O)(=O)N2CCOCC2)cc1[N+](=O)[O-] the Potency was “inactive”.
In the case of COc1cc(NC(=O)C2=CC(c3ccc(F)cc3)=NS(=O)(=O)N2C)cc(OC)c1OC, the Potency is reported as inconclusive [inhibitor, single point].
With Cc1cccc(Cn2nc(C(C)(C)C)cc2C(=O)Nc2ccc(F)cc2)c1 the Potency was “inactive”.
COc1cccc(C(=O)Nc2ccc3oc(-c4cccc5c(Br)cccc45)nc3c2)c1 was tested, and the Potency was inconclusive [inhibitor, partial curve].
C=C1SC(Nc2c(C)cc(C)cc2C)=NC12CCCCC2 was tested, and the Potency was “inactive”.
With Cc1ccc(C)c(N2CCN(C(=O)c3cnn(-c4ccccc4Cl)c3C3CCN(C(=O)OC(C)(C)C)CC3)CC2)c1 the Potency was “inactive”.
With Cc1ccc(C(=O)OCC(=O)c2c[nH]c3ccccc23)cc1S(=O)(=O)N1CCCCC1 the Potency was inconclusive [inhibitor, partial curve].
For O=C(Nc1ncc(Cc2ccccc2)s1)c1cccs1, the Potency was inconclusive [inhibitor, single point].
CCc1ccc(NC(=O)C(CC)n2c(=O)c(-c3ccccc3NC(C)=O)nc3ccccc32)cc1 (centres undefined) was tested, and the Potency was “inactive”.
For O=C(CN1C(=O)C(=O)N(Cc2ccccc2)C1=O)Nc1cc(Cl)cc(Cl)c1, the Potency was inconclusive [inhibitor, partial curve, poor fit].
With Nc1ccc2[nH]ncc2c1 the Potency was inconclusive [inhibitor, full curve].
With COc1ccc(NS(=O)(=O)c2cccc(NC(=O)NC3CCCCC3)c2)cc1 the Potency was inconclusive [inhibitor, partial curve, poor fit].
With C=CCN(c1ccccc1OC)S(=O)(=O)c1cccc(C(=O)OCC(=O)c2c[nH]c3ccccc23)c1 the Potency was active: 15.8 µM.
For O=C(Nc1ccc(-c2noc(CCc3ccccc3)n2)cc1)c1ccco1, the Potency was inconclusive [inhibitor, partial curve].
For Cc1nc(Nc2ccccc2)[nH]c(=O)c1CCC(C)C, the Potency was inconclusive [inhibitor, single point].
In the case of COc1cc(/C=C2/C(C)=C(C#N)c3nc(N)c(C#N)c(C)c32)ccc1OCC(=O)O, the Potency is reported as inconclusive [inhibitor, single point].
In the case of O=[N+]([O-])c1cccc(/C=N/Nc2nnc(-c3ccccc3)c(-c3ccccc3)n2)c1, the Potency is reported as “inactive”.
In the case of NNC(=O)c1cc(O)c(O)c(O)c1, the Potency is reported as inconclusive [inhibitor, partial curve, poor fit].
CN1C=CC=C/C1=C1\SC(=S)N(CC(=O)O)C1=O was tested, and the Potency was “inactive”.
With O=C(c1ccc2c(=O)n(C3CCCC3)c(=S)[nH]c2c1)N1CCCCCC1 the Potency was inconclusive [inhibitor, single point].
O=C(/C=C/c1ccccc1Cl)Nc1nc(-c2cccs2)ns1 was tested, and the Potency was inconclusive [inhibitor, full curve, poor fit].
With O=C(c1ccc(NC(=S)NCc2ccc(Cl)cc2)cc1)N1CCCCC1 the Potency was inconclusive [inhibitor, partial curve].
With COc1ccc(NC(=O)c2cc(=O)[nH]c(=O)[nH]2)cc1S(=O)(=O)Nc1ccccc1Cl the Potency was inconclusive [inhibitor, single point].
COc1cccc(NC(=O)Nc2nnc(N3C(C)CCCC3C)s2)c1 (centres undefined) was tested, and the Potency was inconclusive [activator, partial curve].
COc1cccc(-c2cc(=O)c3cc(NC(=O)c4ccc(C)cc4)ccc3[nH]2)c1 was tested, and the Potency was inconclusive [inhibitor, single point].
C=Cc1ccc(Cn2c(=O)n(-c3cccc(Cl)c3)c(=O)c3c4c(sc32)CN(C(C)=O)CC4)cc1 was tested, and the Potency was inconclusive [activator, partial curve, poor fit].
In the case of Cc1cc(C)c(C(N)=O)c(Nc2cccc(Cl)c2C)n1, the Potency is reported as inconclusive [inhibitor, full curve, poor fit].
For S=C1NC2=C(CCCC2)C2(CCCCC2)N1, the Potency was “inactive”.
With CCCCCC(=O)Nc1ccc(N2CCN(S(C)(=O)=O)CC2)cc1 the Potency was “inactive”.
With CCc1ccc(NC(=O)CC2C(=O)Nc3c2c(=O)n(C)c(=O)n3C)cc1 (centres undefined) the Potency was “inactive”.
CN(C)CCCNc1nc(-c2ccccc2)c2c(c1C#N)CC(C)(C)OC2 was tested, and the Potency was “inactive”.
In the case of CCCCNC(=S)N/N=C1\C(=O)c2cccc3cccc1c23, the Potency is reported as “inactive”.
With Cc1ccc(S(=O)(=O)N(CC(=O)NCCSc2ccc(Cl)cc2)c2ccccc2C)cc1 the Potency was “inactive”.
In the case of Cc1ccc(-c2nnc(Nc3ccc4c(c3)OCO4)c3ccccc23)cc1S(N)(=O)=O, the Potency is reported as inconclusive [activator, partial curve, poor fit].
In the case of Cn1c(=O)n(C)c2cc(/C=N/NC(=O)c3cc4cc(Br)ccc4o3)ccc21, the Potency is reported as “inactive”.
CCOC(=O)c1c(C)n(CC)c2ccc(OC(=O)c3ccc([N+](=O)[O-])cc3)cc12 was tested, and the Potency was inconclusive [activator, partial curve, poor fit].
In the case of O=C(Nc1ccc(-c2csc(Nc3ccc(Cl)cc3)n2)cc1)c1cc([N+](=O)[O-])cc(C(F)(F)F)c1, the Potency is reported as inconclusive [activator, single point].
In the case of CSCCC1NC(=O)N(CC(=O)Nc2ccc(-c3ccccc3)cc2)C1=O (centres undefined), the Potency is reported as inconclusive [inhibitor, partial curve, poor fit].
